# Experimental data reported in PubChem BioAssay AID504832 (National Center for Advancing Translational Sciences (NCATS), 2011).
# Hit rate of the full screen: of about 310,000 compounds, about 18,000 (5.8%) were called active. The inconclusive results got no clear call from the source; some entries with a clear call stand among them for comparison. Calls follow the shape of the dose curve; as a rule, active = well fitted inhibition curve with a large enough effect; inconclusive = small, poorly fitted or top-dose-only effect, or another doubt; inactive = no such curve, though single readings can be large or run the other way. No potency is given beside an inconclusive call; the fits are too rough.
# Test: Primary qHTS for delayed death inhibitors of the malarial parasite plastid, 48 hour incubation
# Settings: P. falciparum luciferase growth in erythrocytes; series mostly up to 28.7 µM; activity change, negative = inhibition: at the top concentration
# Summary of the method: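 Luminescence readout; reporter = integrated firefly luciferase in P. falciparum. RBC culture at 2% hematocrit, 0.1% parasitemia final, 37 C/5% CO2; decreased signal taken as growth inhibition.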
# % is scaled to controls: 0 for no effect and ±100 for the full control effect; potency is read from the fitted curve at half-maximal effect; tags tell the direction and shape of the fitted curve.
SMILES,Potency,"activity change, negative = inhibition"
CC(C)C(=O)Nc1ccccc1Cc1ccccc1,"inconclusive [inhibitor, partial curve, poor fit]",
COCC(=O)N1CCC(n2nccc2NC(=O)c2ccccc2OC)CC1,"inconclusive [inhibitor, single point]",
COc1nc(C)ccc1-c1noc(-c2ccncc2)n1,,inactive: 212%
C=Cn1cc[n+](CC(=O)c2ccc(Br)s2)c1,"inconclusive [inhibitor, full curve]",
O=C(Nc1ccn(Cc2c(F)c(F)cc(F)c2F)n1)c1ccc(COc2ccccc2Cl)cc1,"inconclusive [inhibitor, partial curve]",
Cn1c(=O)[nH]c(=O)c2c1nc(NCCCO)n2Cc1ccc(F)cc1,,inactive: -4.27%
CS(=O)(=O)N(CC(=O)Nc1ccc(S(=O)(=O)N2CCOCC2)cc1)c1ccccc1Cl,,inactive: -8.78%
O=C(Oc1ccc(Cl)cc1)N1CCOCC1,,inactive: 45.5%
CC(C)CC1NC(=S)N(Cc2ccccc2)C1=O (configuration not stated),"inconclusive [inhibitor, single point]",
CCOc1ccc(N2CC(C(=O)Nc3cccc(C(=O)NC4CC4)c3)CC2=O)cc1 (configuration not stated),"inconclusive [inhibitor, single point]",
COc1cccc(=O)c2c(C)n(CC(=O)c3ccccc3)c(C)c12,"inconclusive [inhibitor, single point]",
COCCN1Cc2cccc(C(=O)NC(C)CCc3ccco3)c2C1=O (configuration not stated),,inactive: -0.367%
COc1ccc(C)cc1S(=O)(=O)Nc1cc2c3c(c1)CC(=O)N3CCC2,"inconclusive [inhibitor, single point]",
O=C(CSc1nc2[nH]ncc2c(=O)n1-c1ccccc1)c1ccc2c(c1)OCCO2,"inconclusive [inhibitor, single point]",
COCCNc1nc(SCC(=O)N2CCN(c3ccccc3)CC2)nc2ccccc12,"inconclusive [inhibitor, single point]",
CC(O)C(=O)NCCOCCOCCNC(=O)C(C)O (configuration not stated),"inconclusive [inhibitor, full curve, poor fit]",
CC1CCC2(CC1)NC(=O)N(CC(=O)Nc1ccccc1-c1ccccc1)C2=O (configuration not stated),"inconclusive [inhibitor, single point]",
CCc1ccc(C(=O)NNC(=O)c2cccc(N3C(=O)CCC3=O)c2)cc1,,inactive: -0.879%
COc1ccc(Cn2ccc(=O)c(Cc3c(Cl)cccc3Cl)c2C)cc1,"inconclusive [inhibitor, single point]",
Cc1nc2ccc(S(=O)(=O)NC(C(=O)Nc3nccs3)C(C)C)cc2s1 (configuration not stated),"inconclusive [inhibitor, partial curve]",
COC(=O)c1ccc(CSc2ccc3nnc(-c4ccccc4)n3n2)o1,active: 10.4 µM,
COC(=O)c1cn(NC(=O)Cc2c(F)cccc2Cl)c(=O)c2ccccc12,,inactive: 6.21%
CCOC(=O)c1cnc2ccc(OCC)cc2c1NCc1cccnc1,"inconclusive [inhibitor, single point]",
CCOc1ccc(-c2noc(CCC(=O)NC3CCCC3)n2)cc1OC,,inactive: 1.54%

SMILES,Potency,"activity change, negative = inhibition"
Cn1c(=O)c2cc(S(=O)(=O)NCCC(=O)N3CC=C(c4ccccc4)CC3)ccc2n(C)c1=O,"inconclusive [inhibitor, partial curve, poor fit]",
CC(=O)N1N=C(c2cccc([N+](=O)[O-])c2)OC1c1cccc(Br)c1 (configuration not stated),"inconclusive [inhibitor, single point]",
COc1cc(/C=C(/C#N)c2nc3ccccc3[nH]2)ccc1OCC(=O)Nc1ccccc1C(C)C,"inconclusive [inhibitor, full curve, poor fit]",
O=C(CSc1ccccc1C(=O)O)NCC1CCCCC1,,inactive: 16.6%
COc1ccc(-c2nn(-c3ccccc3)cc2/C=N/NS(=O)(=O)c2ccccc2)cc1,"inconclusive [inhibitor, partial curve, poor fit]",
CCc1nc(NCc2ccco2)c2oc3ccccc3c2n1,"inconclusive [inhibitor, partial curve]",
Cc1[nH]n(-c2ccccc2)c(=O)c1/C=N/c1nn[nH]n1,,inactive: 65.8%
CC(C)=CCN1CCN(Cc2cccn2-c2nccs2)CC1CCO (configuration not stated),,inactive: -11.6%
O=C(COC(=O)c1c2c(nc3ccccc13)/C(=C\c1cccs1)CCC2)Nc1ccccc1,"inconclusive [inhibitor, single point]",
CCS(=O)(=O)c1nc(S(=O)(=O)c2ccc(Cl)cc2)c(N2CCN(C)CC2)s1,"inconclusive [inhibitor, partial curve, poor fit]",
COc1ccc(CNC(=O)C2CCC(CNc3c(N4CCC(C)CC4)c(=O)c3=O)CC2)cc1 (configuration not stated),"inconclusive [inhibitor, partial curve]",
Cc1ccccc1NC(=O)CSc1ccc(-c2ccccn2)nn1,,inactive: 10.2%
CC(C)(CNc1ccc(S(=O)(=O)C(F)(F)F)cc1[N+](=O)[O-])N1CCOCC1,"inconclusive [inhibitor, single point]",
OCCn1c(CSc2nnc(-c3ccco3)n2-c2ccccc2)nc2ccc(Cl)cc21,active: 11.7 µM,
COC(=O)c1sccc1NC(=S)N(C)C1CCCCC1,active: 9.28 µM,
CCOc1ccc(N(CC(=O)NCc2ccc(F)cc2)C(=O)CCC(=O)Nc2nccs2)cc1,"inconclusive [inhibitor, partial curve, poor fit]",
O=C(CNS(=O)(=O)c1ccc(F)cc1)N1CCCCCC1,,inactive: 32.1%
CCc1ccc(/C=C2\SC(=S)N(CCCC(=O)Nc3ccccn3)C2=O)cc1,"inconclusive [inhibitor, partial curve, poor fit]",
CCC(CC)c1nnc(NC(=O)C2CC(=O)N(CCc3ccc(F)cc3)C2)s1 (configuration not stated),"inconclusive [inhibitor, single point]",
CC(=O)NC(CC(=O)Nc1ccc2c(c1)OCCO2)c1ccccc1 (configuration not stated),,inactive: 39.9%
CN(C)c1ccc(C(=O)OCC(=O)NCCNC(=O)COC(=O)c2ccc(N(C)C)cc2)cc1,,inactive: 132%
O=S(=O)(NCCCO)c1ccc2c(c1)Cc1cc(S(=O)(=O)NCCCO)ccc1-2,"inconclusive [inhibitor, single point]",
Cc1ccc(NC(=O)CSc2nnc(-c3ccc(S(=O)(=O)N4CCOCC4)cc3)n2C)cc1,"inconclusive [inhibitor, partial curve]",
Cc1cc(C(=O)OCC(=O)NCc2ccco2)c(C)n1-c1ccc(F)cc1,active: 8.28 µM,

SMILES,Potency,"activity change, negative = inhibition"
CCOC(=O)C1=C(COC(=O)c2ncc(Cl)c(Cl)c2Cl)NC(=O)NC1C (configuration not stated),,inactive: 1.68%
COCCNc1nc(N)c([N+](=O)[O-])c(N2CCCCCC2)n1,"inconclusive [inhibitor, single point]",
CC1Cc2ccccc2N1C(=O)COC(=O)c1ccc(N(C)C)cc1 (configuration not stated),"inconclusive [inhibitor, single point]",
COC(=O)Cc1c(CSc2ccccc2)oc2ccc(O)c(CN(C)C)c12,"inconclusive [inhibitor, partial curve, poor fit]",
NC(=O)C1CCN(C(=O)/C=C/c2cccc(Br)c2)CC1,,inactive: 20.9%
Cc1cc(NC(=O)C2CC=CCC2C(=O)O)ccc1NC(=O)c1ccccc1 (configuration not stated),"inconclusive [inhibitor, single point]",
Cn1c(SCCCC(=O)c2ccc(F)cc2)nnc1-c1ccncc1,"inconclusive [inhibitor, partial curve]",
Cc1ccc(C(=O)N(CN2CCCC2=O)c2ccccc2)cc1C,"inconclusive [inhibitor, partial curve, poor fit]",
O=C(Nc1ccccc1Cl)c1ccc(-c2ccccn2)s1,,inactive: 158%
COc1ccc2c(C)c(Cc3ccccc3)c(=O)oc2c1OC,active: 11.7 µM,
Cc1ccccc1OCC(=O)NNC(=O)Nc1ccc(Cl)cc1,,inactive: 25.6%
O=C1C=C(c2cccc(O)c2)C[C@@H](c2ccc(F)cc2)C1,"inconclusive [inhibitor, single point]",
O=C(CSC1c2ccccc2-c2ccccc21)N/N=C/c1ccc(C(=O)O)cc1,"inconclusive [inhibitor, partial curve, poor fit]",
COc1cc(C)nn1-c1ccc(Cl)cc1,,inactive: 10.6%
CCc1c(C)nc2ncnn2c1NC1CCCc2ccccc21 (configuration not stated),"inconclusive [inhibitor, partial curve]",
CC1CN(CCOc2ccc(Cl)cc2Cl)CC(C)O1 (configuration not stated),,inactive: 5.83%
CC1CCCN(c2ccc(C(=O)Nc3cccnc3)cc2[N+](=O)[O-])C1 (configuration not stated),,inactive: -15.3%
CCCCCCCc1c(C)nc(N2CCOCC2)[nH]c1=O,active: 1.47 µM,
COCCCNC(=S)N1CCN(c2nc(-c3cccc(OC)c3)cs2)CC1,"inconclusive [inhibitor, partial curve]",
CC(=O)c1cccc(NC(=O)c2ccc(S(=O)(=O)N3CC(C)OC(C)C3)cc2)c1 (configuration not stated),"inconclusive [inhibitor, single point]",
COc1ccc(CNC(=O)c2cc(-c3ccccc3O)n[nH]2)cc1,,inactive: -10.1%
CC(C)(C)c1ccc(CN2C(=O)CN=C(c3ccccc3)c3ccccc32)cc1,active: 2.08 µM,
COc1ccc(C2C(C(=O)/C=C/c3ccco3)=C(O)C(=O)N2CCN2CCOCC2)cc1 (configuration not stated),"inconclusive [inhibitor, partial curve, poor fit]",
COc1cccc(NC(=S)N2CCc3cc(OC)c(OC)cc3C2COc2ccc3c(C)cc(=O)oc3c2)c1 (configuration not stated),active: 5.22 µM,
